Measurements published in PubChem BioAssay AID1956 (SRMLSC, 2009).
The other results are listed elsewhere or left out. These are further read-outs of the screen, such as a control signal, another cell line or another target. No call is given for them.

Assay: compounds boosting herpes simplex virus growth – fold increase, host cell viability (AID 1956); note: tested in PC3 cells
Conditions: HSV replication augmentation in cells; fold increase: measured here: primary screen fold increase 10 uM, at 10 µM, stronger effect = higher value; viability: measured here: host cell viability series, at 25 µM, stronger effect = lower value

Structure (SMILES)	fold increase	viability [%]
CCN(CC)c1ccc(/C=N/Nc2nc3ccccc3[nH]2)c(O)c1	1.72	
CCCCn1c(NS(=O)(=O)c2ccccc2)c(S(=O)(=O)c2ccc(C)cc2)c2nc3ccccc3nc21	1.6	96.7
N#CC1(C#N)CC(C=O)=C(N)C1(C#N)CC(=O)c1ccc(F)cc1 (stereo not drawn)	1.79	96.2
COc1cc(N=Nc2cccc(S(N)(=O)=O)c2)c2ccccc2c1N	1.78	
CCOC(=O)C1=C(CSc2nc3c(cc2C#N)CN(C)CC3)OC(N)=C(C#N)C1c1ccncc1 (stereo not drawn)	1.51	99.7
CCCCn1c(N)c(N(CCOC)C(=O)CN2c3ccccc3CC2C)c(=O)[nH]c1=O (stereo not drawn)	2.2	98.5
CCCN1C(=O)C2(C(C(=O)c3ccc(C)o3)=C(O)C(=O)N2CCCOC)c2ccccc21 (stereo not drawn)	1.36	101
COc1ccccc1N1CCN(S(=O)(=O)c2ccc(Cl)s2)CC1	1.37	101
C/C(=N/Nc1nc(-c2ccccc2)c(CC(=O)O)s1)c1ccccc1	1.48	91.3
c1ccc(-c2noc(CSc3nnc(Cc4cccs4)n3-c3ccccc3)n2)cc1	1.35	97
Cc1cccc(-n2c(O)c(C=Nc3ccc4c(c3)OCO4)c3ccccc3c2=O)n1	1.35	
CCN(CC)c1ccc(/C=N/Nc2cccc(C)c2)c(O)c1	1.34	
O=C(Cn1cnc2cc([N+](=O)[O-])ccc2c1=O)Nc1ccc(N2CCOCC2)cc1	1.32	
OC1CNCc2cc3c(cc21)OCCO3 (stereo not drawn)	1.49	94.9
CCOC(=O)c1c(/N=C/c2ccc(C)cc2O)sc2c1CCC2	1.67	
Cc1nnc(NC(=O)c2sc3nc(-c4cccs4)cc(C(F)(F)F)c3c2N)s1	3.51	86.1
O=C(NCc1ccco1)c1ccc2c(c1)C(=O)c1ccccc1-2	1.45	87.3
N#Cc1c(NC(=O)CCN2C(=O)c3ccccc3C2=O)oc(-c2ccccc2)c1-c1ccccc1	1.17	
Cc1cc2cc(CNC(=O)c3cccs3)ccc2n1C	1.64	92.9
N=C1c2ccccc2CN1NC(=O)c1cccc(S(=O)(=O)N2CCOCC2)c1	1.33	
O=C(Cc1ccccc1)Nn1c(O)c(/C=C2\C=Nc3ccccc32)sc1=S	4.8	61
COc1ccc(/C=C/C(=O)NC(=S)NNC(=O)c2ccco2)cc1	1.14	
N=C1/C(=C\c2coc3ccccc3c2=O)C(=O)N=C2SC(c3ccncc3)=NN12	1.49	95.3
O=C(CSc1nncs1)NC(=O)NCc1ccccc1	1.32	98.3
CN(C)CCCn1c(N)c(C#N)c2nc(C#N)c(C#N)nc21	1.15	50.1
COc1ccc(-c2cn[nH]c2C)cc1	1.33	105
